# Results taken from the supplement of paper PMC11417369.
# ± gives the standard deviation of the averaged measurements. The list shows a part of the results.
# Tested on: PfAP2-I AP2 domain 3 (GST-tagged)
# Experiment: gcPBM binding intensity (ln(normalized median fluorescence intensity)); higher = stronger DNA binding
# Procedure, shortened: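 GST-tagged P. falciparum DNA-binding domains produced in E. coli were incubated for 1 h on an Agilent 4 × 180k array of primer-extended double-stranded 36-bp intergenic genomic probes with negative controls. Binding intensity is the highest Masliner-normalised natural-log median intensity across replicate spots of either probe orientation, with bound protein detected by Alexa488 anti-GST antibody at 488 nm.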
row,Sequence,gcPBM binding intensity (ln)
1,ATATTTTTATATGAGGTGCATATAATGACAATTAAG,10.7 ± 0.61
2,TCTTTTTATGTTCTAGAGCATTTTATTATTTAACAT [CACACA_negctrl_site1699],8.02 ± 0.83
3,ATACTATTTAAATGGGTGCTAAAAATAACAAAAATT,9.65 ± 0.085
4,TTATATTTTAAGAAATGTACATGATATAATTATCAA [XGTACX_site8693],7.71 ± 0.52
5,TGGATGAGGACATACACACACACATAAGTTGATACA [CACACA_site3423],7.93 ± 0.3
6,TTTTTTTTAATTTTCTGTACAAATTTATATATACTA [XGTACX_site4251],7.87 ± 0.62
7,AATGAAAAGGAACATACACACCCCATATAAATATAT [CACACA_site7588],8.14 ± 0.75
8,TATTTCTTATGAAGGACATGCAATATTATTTATCTC [TGCATGCA_site683],7.83 ± 0.35
9,GGTCTTTTTATGATATGTACTTATATAATATTATAT [XGTACX_site6458],8.39 ± 0.36
10,ATGTAGAAGTAATGCACACATATGTATATATATATA [CACACA_site2494],10.9 ± 0.63
11,AACAGCATGAAGTAAAGTACTAGTTTTATTTATTTA [XGTACX_site1116],7.31 ± 0.42
12,AGGAAATTTTTTTTTTTTTTTTTTTTTTTTTTTTAC [TGCATGCA_negctrl_site170],7.5 ± 0.56
13,CAAAATATTATGAATTGTACATATTTTAAAACGTTT [XGTACX_site1614],7.54 ± 0.49
14,TGATAAGTATACTAAAGTACATGAAAAATAACTTCC [XGTACX_site6908],7.69 ± 0.58
15,TCCTAATGGTTTAATTGTACAAAAAAAAAAAATATA [XGTACX_site322],7.64 ± 0.37
16,ATAGATGTCTTCATATGTACATAAATTCAAGTATAT [XGTACX_site7492],7.79 ± 0.43
17,TGATTATAAAAGTAGGTGCTACAAAAATTACACATT [GTGCAC_site9530],8.7 ± 0.45
18,AAAAAATTTTGAAATTGTACATATATAAAAAATATA [XGTACX_site2629],7.59 ± 0.29
19,TTTAAATATATTAATACACACACGATATGTACAAAA [CACACA_site539],8.06 ± 0.43
20,GAATAAATTGTATTGTGTACATATAAAAGCATCTAA [XGTACX_site8271],7.93 ± 0.4
21,TATAAATATACAAAGGTGCATAAAAAGTTATGTTTT [GTGCAC_site9832],11.2 ± 0.26
22,TTTCTATAATATTCTACACACCAACAACAAACATAT [CACACA_site6409],8.29 ± 0.33
23,TTTCGAATTAAAGCATGTGAAAATTTTCAAAAAATA [XGTACX_negctrl_site577],7.78 ± 0.61

row,Sequence,gcPBM binding intensity (ln)
1,GAATCACTAATTTTTTTACACACCACAATTTAATTT [CACACA_site8311],8.21 ± 0.74
2,ACAAAACATAATTGTTGTACAAAAAGAATTATATAT [XGTACX_site8422],8.18 ± 0.52
3,ATAATAATATAATATTCACACAATTGAAATAGTGTA [CACACA_site6083],7.54 ± 0.49
4,AAATAAAAATTACAAGCATGCATTTTCCTATTTGCA [TGCATGCA_site861],7.84 ± 0.88
5,GTGTAAAAATTAAAGTGTACACATATATATATATAT [XGTACX_site2251],9.6 ± 0.3
6,AAGTTAATGTTTTGCGCACACTTCTTTTTAATATAA [CACACA_site3938],9.18 ± 0.23
7,TTCTTTATATAAACAAGTACATATAAAATACATATA [XGTACX_site8036],7.8 ± 0.41
8,ACAGCTCTAGGACATGCATGTTATATAGAAAAAGAG [TGCATGCA_site703],8.39 ± 0.61
9,AAATACATATTTAGAAGTACATTTATACATTTAATA [XGTACX_site8871],7.59 ± 0.43
10,TTCATTAAAGTTATTACACACAGTTCTTCAACCAAA [CACACA_site7613],7.88 ± 0.46
11,ATTTTTTCTTATAAAAAAGAAAAAGAAAAAGAAAAA [CACACA_negctrl_site1216],7.96 ± 0.49
12,TATATATTAAGATGCACACACAAGAAGTAATTATAA [CACACA_site5726],8.68 ± 0.54
13,GATGAGGACAGACACACACACATAAGTTGATACATA [CACACA_site7580],8.12 ± 0.33
14,TTTTTTTCTTAAAGATGTACTTTTTAAAAACAATCT [XGTACX_site986],7.79 ± 0.43
15,AGACATATTCTTTTTACACACTTGAATAAAAAATAT [CACACA_site1205],7.94 ± 0.47
16,CATTTTATAAAAACAAGTACCCAACATATATATAAT [XGTACX_site5955],7.82 ± 0.47
17,GTTTTTACTTTTATCTGTACATAATACTACCAATAT [XGTACX_site5414],8.27 ± 0.43
18,TGCCTATGACATGAATGTACATTAAAATTAAATAAA [XGTACX_site7126],7.55 ± 0.44
19,GTTGGGTAATTCGTAACACACATAAAATATATATAA [CACACA_site3986],7.89 ± 0.44
20,CACGCGCACCAACACACACACACACCCATATATATA [CACACA_site2204],8.82 ± 0.47
21,CTGTACACTTAAACGGTGCAAAAAGAAAAAAAAGAA,11 ± 0.38
22,TATATATAATATGAATGTACACAAAAAGGTAATACA [XGTACX_site6202],8.22 ± 0.42
23,AAAAAAAAGAAATAGACACACATATATTTTTAAACA [CACACA_site3954],7.5 ± 0.61

row,Sequence,gcPBM binding intensity (ln)
1,TGATATAAAATTAAAGTGCAAAAAAAAAATAAAAAA,10.06 ± 0.078
2,ATAATATTATGAACCTGTACATAATTTTTCTTTTCT [XGTACX_site3377],7.53 ± 0.5
3,TATAATTTTTTTGAATTATATATATATATATATAAT [XGTACX_negctrl_site26],7.82 ± 0.4
4,AGTATATTTCTAACTTGTACGAAATTAATAATTTAT [XGTACX_site6635],7.62 ± 0.29
5,TAATTAAATAAAAAAAAATATATATATATATATATA [XGTACX_negctrl_site616],9.43 ± 0.45
6,TTTTTTAAAAATAACTGTACAGAGGCTGTTAGGATA [XGTACX_site2521],8.2 ± 0.38
7,AGACAATATTAATAAGGTACACATATATATTAAAAA [XGTACX_site6709],7.98 ± 0.38
8,AGCCCTTTTTTTTTTTAGAATATTGCATAATTATAT [XGTACX_negctrl_site546],8.03 ± 0.7
9,GTATTGTATGGATGGGGTACTATATATATATATTTT [XGTACX_site1694],8.77 ± 0.49
10,TATATAAATATATCCACACACATACCTATATTAATA [CACACA_site6184],7.83 ± 0.33
11,TTTATATGTTTTAAGTGTACACATATAATGTATTTT [XGTACX_site3069],7.92 ± 0.28
12,TAAGGGAGAGATTTGTATCATAAGCAACTTTCAAAA [CACACA_negctrl_site1436],7.71 ± 0.23
13,TTATAATTAAATTTCACACAGTTCATAACATAATTA [CACACA_site5501],7.55 ± 0.49
14,ACTTTCAACATGAAGTTGCACTTTTTTTTTTTTCTT,8.74 ± 0.91
15,ATTATTAAAAATATGGGTACATATTATTGTTATATA [XGTACX_site1958],7.59 ± 0.2
16,CACACTTGCTCCTGTTGTACATAACCATAAGCAACA [XGTACX_site2102],8.24 ± 0.49
17,TGAATATAACAAATATGTACTTAAAATTGTTATATT [XGTACX_site5679],7.59 ± 0.46
18,TAAAGAAATAAATACATACACACATATATATATATA [CACACA_site3363],9.48 ± 0.53
19,AAACTTTACATTACTTGTACATATATTCTATATAAT [XGTACX_site8640],8.01 ± 0.59
20,AAAAAAAAAAAAAAATGTACATGACATGACATGACA [XGTACX_site4020],8.16 ± 0.45
21,TTATATTTTACAAATGCACACATAATTTTTTTTTTT [CACACA_site8890],9.04 ± 0.19
22,TTTGATAATAAGATATAATACTTAAATATATATATA [GTGCAC_negctrl_site339],9.09 ± 0.21
23,AAATATATATTCAAAAGTACACAATTTGTTAATAAT [XGTACX_site8917],7.8 ± 0.48

row,Sequence,gcPBM binding intensity (ln)
1,TATTTTACGCGGTTTATAATGACATGTTCTATATTT [CACACA_negctrl_site1184],7.83 ± 0.65
2,TAAATATATAAATACACACACACCAAAGCAATAGAT [CACACA_site5605],8.21 ± 0.65
3,TCCATATGCATGTATTGTACTGTAATATATTAAAAA [XGTACX_site472],7.86 ± 0.38
4,AGCAGTCGACAGGACAGTACACAGTAGCCAGGAAAT [XGTACX_site4929],7.75 ± 0.76
5,AAAAAAAAAAAAGAAACACACACATATATATATATA [CACACA_site8525],9.38 ± 0.14
6,GCTTATATTAATAAGGTGCTTTTTATTTCGTGTGTA [GTGCAC_site9649],9.06 ± 0.15
7,AATATGTACAGACATACACACATATTTATATTTATA [CACACA_site6694],7.79 ± 0.4
8,TTATATAAAGAATGTACACACAGAAATGCACAGACA [CACACA_site5288],9.43 ± 0.29
9,TCATAGTATAAACACACACACACACCCATATATATA [CACACA_site8512],8.43 ± 0.63
10,TAGTATTAAATATATACACACATATATACCTATAGA [CACACA_site5219],7.63 ± 0.55
11,TGAAAAGATAAAAAAAGTACACACACACATATATAT [XGTACX_site6504],8.31 ± 0.52
12,AAAAATTCAATAGGACGTACTAAAACATTCATTAAT [XGTACX_site1712],7.71 ± 0.6
13,TTATAAATAATGAGAAACATTAAATTTAATCATAAA [CACACA_negctrl_site523],7.51 ± 0.41
14,TTTAGTGTTATAAAAAGTACATAATAATTCCTTTTC [XGTACX_site3208],7.74 ± 0.25
15,TACTATATATATATATATATATATATATATATTTAT [GTGCAC_negctrl_site593],8.32 ± 0.26
16,TAAAAAAATTATATTTGTACATATTAATATAGCCTT [XGTACX_site4833],7.47 ± 0.42
17,AAACGTATTCTATAAAGTACATTATTATAGTAGACC [XGTACX_site8068],7.77 ± 0.48
18,TATTGAATAAAATGCACACGCATGCGTTATTTATTA [CACACA_site3479],8.9 ± 0.21
19,AAAATATTTATTTTTTGTACACATAAAAACGCACTT [XGTACX_site4132],8.98 ± 0.16
20,CATATTTTGTGAAAAAGTACATATATATATATATAT [XGTACX_site6295],9.36 ± 0.3
